{
  "source": "paper PMC4336329",
  "about": "(PLoS ONE, 2015)",
  "note": "About 2,200 (0.71%) of roughly 310,000 compounds showed an effect of 50% or more. The effect is printed as a negative number. This is one part of the list.",
  "data": [
    {"molecular_target": "human ether-à-go-go-related gene (hERG) potassium channel (human, UniProt Q12809)", "sequence (Q12809 whole entry, looked up)": "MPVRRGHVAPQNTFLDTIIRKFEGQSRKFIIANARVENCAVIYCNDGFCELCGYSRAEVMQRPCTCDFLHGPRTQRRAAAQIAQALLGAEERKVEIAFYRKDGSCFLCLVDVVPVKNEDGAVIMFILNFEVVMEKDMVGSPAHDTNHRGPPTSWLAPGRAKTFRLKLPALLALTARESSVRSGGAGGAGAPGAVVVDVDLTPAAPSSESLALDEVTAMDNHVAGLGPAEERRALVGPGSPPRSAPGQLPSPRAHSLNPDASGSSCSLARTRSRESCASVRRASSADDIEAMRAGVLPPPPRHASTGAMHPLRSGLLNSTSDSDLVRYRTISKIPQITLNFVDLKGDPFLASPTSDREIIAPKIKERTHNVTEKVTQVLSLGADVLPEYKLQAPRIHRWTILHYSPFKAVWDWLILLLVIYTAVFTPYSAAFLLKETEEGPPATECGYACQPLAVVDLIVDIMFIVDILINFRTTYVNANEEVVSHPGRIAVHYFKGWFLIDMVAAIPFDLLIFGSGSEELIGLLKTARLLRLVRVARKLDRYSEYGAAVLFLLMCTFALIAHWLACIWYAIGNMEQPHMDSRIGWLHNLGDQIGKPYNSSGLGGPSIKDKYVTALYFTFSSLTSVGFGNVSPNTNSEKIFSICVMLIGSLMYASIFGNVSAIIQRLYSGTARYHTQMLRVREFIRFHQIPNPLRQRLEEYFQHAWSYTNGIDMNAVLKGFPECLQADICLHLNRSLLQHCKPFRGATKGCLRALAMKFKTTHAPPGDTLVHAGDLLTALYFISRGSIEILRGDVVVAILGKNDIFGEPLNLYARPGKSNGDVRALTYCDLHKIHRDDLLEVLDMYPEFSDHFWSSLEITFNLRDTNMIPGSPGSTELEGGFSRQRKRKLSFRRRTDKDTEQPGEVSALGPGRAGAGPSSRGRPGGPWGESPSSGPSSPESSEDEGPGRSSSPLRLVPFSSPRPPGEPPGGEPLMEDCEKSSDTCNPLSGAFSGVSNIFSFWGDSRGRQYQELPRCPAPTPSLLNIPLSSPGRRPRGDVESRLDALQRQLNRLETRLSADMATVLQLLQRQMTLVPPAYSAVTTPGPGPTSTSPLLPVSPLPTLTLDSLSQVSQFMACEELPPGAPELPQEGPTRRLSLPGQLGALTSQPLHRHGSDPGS", "assay": "primary screen, population patch clamp on CHO cells stably expressing hERG", "units": {"hERG current change (%, negative = inhibition) at 1uM": "%"}, "values": [
      {"smiles": "CCOc1cc(C(=O)Nc2cccnc2)cc(OCC)c1OCC", "hERG current change (%, negative = inhibition) at 1uM": 8.43},
      {"smiles": "Cn1cc(CCC(=O)N2CCCC(CCC(=O)NCc3ccccc3F)C2)cn1", "note": "(stereo not shown)", "hERG current change (%, negative = inhibition) at 1uM": 12.2},
      {"smiles": "Cc1cc(C)cc(NC(=O)c2cc(Cl)sc2Cl)c1", "hERG current change (%, negative = inhibition) at 1uM": 15.7},
      {"smiles": "Cc1cc(C)c(-c2noc(C(=O)OC(C)(C)C)c2C(=O)OC(C)(C)C)c(C)c1", "hERG current change (%, negative = inhibition) at 1uM": 5.95},
      {"smiles": "Cc1ccc(CNC(=O)C2(NC(=O)Nc3ccc(C)cc3)CCCCC2)cc1", "hERG current change (%, negative = inhibition) at 1uM": 16.7},
      {"smiles": "Cc1ccc(S(=O)(=O)CCC(=O)Nc2cccc([N+](=O)[O-])c2)cc1", "hERG current change (%, negative = inhibition) at 1uM": -7.98},
      {"smiles": "Cc1nc([N+](=O)[O-])cn1CC(O)c1ccc(-c2ccccc2)cc1", "note": "(stereo not shown)", "hERG current change (%, negative = inhibition) at 1uM": -6.66},
      {"smiles": "N/C(=N\\OC(=O)c1ccco1)c1ccccc1", "hERG current change (%, negative = inhibition) at 1uM": 13.6},
      {"smiles": "Cc1ccc(NC(=O)c2cc(-c3ccccc3)nn2-c2ccccc2)c(Br)c1", "hERG current change (%, negative = inhibition) at 1uM": 1.57},
      {"smiles": "CCOCCn1c(CN2CCN(c3ccccc3)CC2)nc2c1c(=O)n(C)c(=O)n2C", "hERG current change (%, negative = inhibition) at 1uM": -3.81},
      {"smiles": "O=C(NCC(=O)N1CCN(C(c2ccccc2)c2ccccc2)CC1)c1ccccc1F", "hERG current change (%, negative = inhibition) at 1uM": 8.87},
      {"smiles": "CC1(C)c2ccccc2-n2c1cc1oc(=O)cc(O)c1c2=O", "hERG current change (%, negative = inhibition) at 1uM": 11.9},
      {"smiles": "NC(=O)c1nn(CC(=O)Nc2ccc3c(c2)OCO3)cc1[N+](=O)[O-]", "hERG current change (%, negative = inhibition) at 1uM": 5.64},
      {"smiles": "CC1CCCN(C(=O)C(C)Sc2nc(-c3ccccc3)cc(C(F)(F)F)n2)C1", "note": "(stereo not shown)", "hERG current change (%, negative = inhibition) at 1uM": 11.9},
      {"smiles": "O=C(Nc1ccc2cn[nH]c2c1)c1ccccc1F", "hERG current change (%, negative = inhibition) at 1uM": -1.69},
      {"smiles": "Cc1cccc(C(=O)OC(C)C(=O)NC2CCCc3ccccc32)c1O", "note": "(stereo not shown)", "hERG current change (%, negative = inhibition) at 1uM": 0.675},
      {"smiles": "CCN(C(=O)COC(=O)c1ccc(Cl)c(N)c1)C1CCS(=O)(=O)C1", "note": "(stereo not shown)", "hERG current change (%, negative = inhibition) at 1uM": 16.5},
      {"smiles": "O=C(NCc1cccnc1)C12CC3CC(CC(Cl)(C3)C1)C2", "hERG current change (%, negative = inhibition) at 1uM": 19},
      {"smiles": "S=C1NCCc2ccccc2C1c1ccccc1Cl", "note": "(stereo not shown)", "hERG current change (%, negative = inhibition) at 1uM": -3.99},
      {"smiles": "CC(C)N(C(=O)COC(=O)c1ccc(Cl)nc1)C(C)C", "hERG current change (%, negative = inhibition) at 1uM": 8.95},
      {"smiles": "O=C(NCc1cccnc1)C(=O)NCC1OCCN1S(=O)(=O)c1ccccc1", "note": "(stereo not shown)", "hERG current change (%, negative = inhibition) at 1uM": 8.54},
      {"smiles": "CC1=NN(c2ccccc2)C(=O)C1N=Nc1ccccc1", "note": "(stereo not shown)", "hERG current change (%, negative = inhibition) at 1uM": 12.2},
      {"smiles": "COc1ccc(C(CNC(=O)c2ccc(C)c(S(=O)(=O)Nc3ccccc3OC)c2)N2CCCC2)cc1", "note": "(stereo not shown)", "hERG current change (%, negative = inhibition) at 1uM": -15.8},
      {"smiles": "CCn1c(CN(C)c2ccccc2)nc2ccccc21", "hERG current change (%, negative = inhibition) at 1uM": 7.21},
      {"smiles": "CCOc1ccc(S(=O)(=O)N2CCN(S(=O)(=O)c3ccc(OCC)cc3)C(C)C2)cc1", "note": "(stereo not shown)", "hERG current change (%, negative = inhibition) at 1uM": -16.8}
    ]}
  ]
}
